# Measurements reported in publication PMC9911399, “Two distinct binding modes provide the RNA-binding protein RbFox with extraordinary sequence specificity”.
# Changes are numbered by the printed parent chain; changes in the protein carry UniProt numbers. This is one part of the list.
# T1: RBFOX1 RRM RbFoxmut (Fox-RRM*) (Homo sapiens, UniProt Q9NWB1 109-208, R118D;E147R;N151S;E152T)
# T1 sequence: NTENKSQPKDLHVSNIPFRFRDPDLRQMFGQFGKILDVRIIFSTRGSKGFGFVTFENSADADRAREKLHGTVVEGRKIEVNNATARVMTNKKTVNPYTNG
# B1: GAUGGAG (DNA:RNA)
# RNA: GGGAGACCGGAAUUCAGAUUGUCCGAUGGAGUUAAAUCCCGUCGUAGCCACCA
# DNA 1: CAATCTGAATTCCGGTCTCCC
# DNA 2: TGGTGGCTACGACGGGATT
# B2: CAGAAUU (DNA:RNA)
# RNA: B1 RNA with G25C, U27G, G28A, G29A, A30U, G31U
# DNA 1: CAATCTGAATTCCGGTCTCCC
# DNA 2: TGGTGGCTACGACGGGATT
# B3: ACUCUGG (DNA:RNA)
# RNA: B1 RNA with G25A, A26C, G28C, G29U, A30G
# DNA 1: CAATCTGAATTCCGGTCTCCC
# DNA 2: TGGTGGCTACGACGGGATT
# B4: CGCCUCG (DNA:RNA)
# RNA: B1 RNA with G25C, A26G, U27C, G28C, G29U, A30C
# DNA 1: CAATCTGAATTCCGGTCTCCC
# DNA 2: TGGTGGCTACGACGGGATT
# B5: CAAUAUA (DNA:RNA)
# RNA: B1 RNA with G25C, U27A, G28U, G29A, A30U, G31A
# DNA 1: CAATCTGAATTCCGGTCTCCC
# DNA 2: TGGTGGCTACGACGGGATT
# B6: CUCAUCU (DNA:RNA)
# RNA: GGGAGACCGGAAUUCAGAUUGUCCCUCAUCUUUAAAUCCCGUCGUAGCCACCA
# DNA 1: CAATCTGAATTCCGGTCTCCC
# DNA 2: TGGTGGCTACGACGGGATT
# B7: UUCGUCC (DNA:RNA)
# RNA: B6 RNA with C25U, A28G, U31C
# DNA 1: CAATCTGAATTCCGGTCTCCC
# DNA 2: TGGTGGCTACGACGGGATT
# B8: GCAGCUG (DNA:RNA)
# RNA: B1 RNA with A26C, U27A, G29C, A30U
# DNA 1: CAATCTGAATTCCGGTCTCCC
# DNA 2: TGGTGGCTACGACGGGATT
# B9: GGAUACG (DNA:RNA)
# RNA: B1 RNA with A26G, U27A, G28U, G29A, A30C
# DNA 1: CAATCTGAATTCCGGTCTCCC
# DNA 2: TGGTGGCTACGACGGGATT
# Molecular target: T1, RBFOX1 RRM RbFoxmut (Fox-RRM*)
# Experiment: EMSA; HiTS-Eq, 1 nM pool, 10 min; buffer printed only for the single-RNA assays: 10 mM Tris pH 7.5, 150 mM NaCl, 3.4 mM EDTA, 0.001% NP-40, 30 C
# Details: tags: His6 N-terminal (pET28a); label: 5' 32P
# Summary of the method: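 Purified RbFox RRM, wild type or mutant, was incubated for 10 min in 50 µL with 1 nM of a 5′-radiolabelled RNA pool carrying 7 randomized nucleotides, whose flanks were annealed to DNA oligonucleotides, over a series of increasing protein concentrations. Unbound RNA was resolved on 8% native PAGE, cut out, reverse-transcribed, barcoded by PCR and sequenced on an Illumina HiSeq 2500. Relative association constants were derived from changes in read counts for each RNA species versus the control reaction and normalised to the cognate motif.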
row,Binder,binding signal
1,B1,0.103 KA relative to UGCAUGU
2,B2,0.0966 KA relative to UGCAUGU
3,B3,0.0931 KA relative to UGCAUGU
4,B4,0.236 KA relative to UGCAUGU
5,B5,0.155 KA relative to UGCAUGU
6,B6,0.0833 KA relative to UGCAUGU
7,B7,0.0891 KA relative to UGCAUGU
8,B8,0.0707 KA relative to UGCAUGU
9,B9,0.112 KA relative to UGCAUGU
